# Measured values taken from the supplement of paper PMC3334620.
# Over roughly 33,000 sequences, “E-score (-0.5 to 0.5)” has its median near -0.011; the highest 2% begin near 0.28. The list shows a part of the results.
# Target: T1, Gcr1 (UniProt P07261)
# T1 sequence: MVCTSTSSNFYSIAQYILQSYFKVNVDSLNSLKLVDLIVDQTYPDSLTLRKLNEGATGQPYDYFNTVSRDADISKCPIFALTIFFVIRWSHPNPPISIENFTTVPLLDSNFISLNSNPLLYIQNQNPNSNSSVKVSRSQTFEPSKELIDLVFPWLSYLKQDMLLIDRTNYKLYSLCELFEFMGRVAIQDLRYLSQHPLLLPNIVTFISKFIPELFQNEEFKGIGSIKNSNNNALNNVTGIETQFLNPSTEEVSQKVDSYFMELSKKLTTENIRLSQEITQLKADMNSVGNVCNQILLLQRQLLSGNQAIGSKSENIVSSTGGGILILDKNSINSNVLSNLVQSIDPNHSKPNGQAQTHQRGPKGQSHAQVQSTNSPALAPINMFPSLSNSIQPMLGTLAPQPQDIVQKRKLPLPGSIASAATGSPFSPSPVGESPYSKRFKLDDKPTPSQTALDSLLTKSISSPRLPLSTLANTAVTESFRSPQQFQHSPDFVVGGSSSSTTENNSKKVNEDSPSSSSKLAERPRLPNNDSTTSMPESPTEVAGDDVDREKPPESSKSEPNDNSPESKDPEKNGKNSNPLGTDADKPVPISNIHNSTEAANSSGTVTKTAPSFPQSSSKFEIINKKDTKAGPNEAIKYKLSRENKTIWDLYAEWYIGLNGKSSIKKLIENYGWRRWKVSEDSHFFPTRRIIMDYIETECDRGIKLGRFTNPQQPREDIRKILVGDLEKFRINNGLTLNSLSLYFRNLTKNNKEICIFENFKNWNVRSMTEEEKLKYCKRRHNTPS
# Experiment: PBM E-score (8-mer binding enrichment) (E-score (-0.5 to 0.5)); higher = stronger / more preferred TF binding; most listed sequences are background and not binding sites
# Conditions: protein concentration: 100 nM; construct: GST-full length
# In short: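 Detection of bound protein used fluorescent anti-GST, with scans normalised by masliner. The proteins were GST-tagged yeast transcription factors applied at about 100-200 nM to universal all-10-mer Agilent arrays made double-stranded by primer extension. Each ungapped eight-base word, pooled with its reverse complement, was scored with an E-score from the Universal PBM Analysis Suite.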
row,Sequence,PBM E-score
1,AGACCATA,0.0872
2,CTTAGTGA,0.00204
3,ATGACTCC,-0.109
4,CGAGCCGA,-0.337
5,CTCGGGCA,-0.118
6,GCAAGTCC,-0.349
7,ATTACCAA,0.189
8,CCGCTACA,0.151
9,AACATGCC,-0.207
10,CCCGCTCG,-0.172
11,AGTTTGAA,-0.0736
12,CTCTCAGC,-0.0563
13,ACCGCAGC,0.0827
14,GTTTAAGA,0.0229
15,ACGCAGAA,0.071
16,ACAATTGA,-0.067
17,CCACGGGC,0.123
18,ATACCAGG,-0.0373
19,AGATTAAC,0.0599
20,CTGCGACA,-0.106
21,GGGCTACC,0.302
22,CACACGGA,0.0656
23,CATCGATG,0.0296
24,AAGCCAAG,0.162
25,CAATGATC,-0.034

row,Sequence,PBM E-score
1,ATTGGACA,0.0768
2,ATAGTACG,-0.256
3,TAGGATGA,0.0628
4,GTATTGTA,0.0308
5,ATAGTTAG,0.0915
6,ATGTAGAC,-0.0995
7,CCTTACCG,0.0425
8,ATATTGTA,0.0273
9,AGCATGCA,-0.287
10,CACTAATA,0.249
11,AGACACCT,0.0186
12,CTCAAGAG,-0.215
13,AGCTCTAA,-0.108
14,ATTAGCCG,-0.0242
15,CTTGTTGC,0.00311
16,TAACAACA,0.0856
17,CACCTCCA,-0.182
18,CACGTGCG,-0.113
19,AAAAGCAC,0.0387
20,ACACGTTA,-0.12
21,AAAAATTC,0.0187
22,ACCATAGC,0.0791
23,GAGGACCC,-0.109
24,GATGAAGC,-0.0129
25,TCTACCCA,0.0822

row,Sequence,PBM E-score
1,GGCTCGAA,-0.0753
2,GTCTGGTA,0.0223
3,CGTATGAC,0.0685
4,CATGGGTA,0.00548
5,ATAATCAG,-0.0418
6,ACATTGTC,-0.0445
7,AAACCCAC,-0.0238
8,CGAGTCCC,0.168
9,CAATAGGG,0.198
10,ACCTAGCG,-0.26
11,ATAGCTGG,-0.26
12,AGGGGCGG,0.15
13,AAATTTGC,0.109
14,AAATACTA,0.142
15,ATTGACAA,-0.129
16,CCAGCAAA,0.076
17,TATACCGA,0.025
18,AAGCCTGC,-0.0352
19,CACGTAAG,-0.0327
20,CCGCTGTC,-0.193
21,CATATGGG,0.0873
22,CGATGAAA,0.119
23,AGTAAACG,0.0961
24,CAAATCAC,-0.062
25,AGATGCCT,0.17

row,Sequence,PBM E-score
1,CATTGTCC,-0.0689
2,ACATCGTC,0.112
3,AATACTTC,-0.104
4,CGTAACCC,0.0924
5,GCCGTCCC,-0.0711
6,CCGATTAA,0.149
7,ACTCGACG,-0.0156
8,CCTCGGAC,-0.102
9,GCCTCCGC,0.0664
10,GTCGCACA,-0.153
11,GCGCCAAA,0.162
12,GTTAACAA,0.0556
13,AACAGTTC,-0.0574
14,CTCTTTGC,-0.181
15,GAGAGGTA,-0.101
16,CAACTTTC,0.0761
17,CGGTGCAG,0.0337
18,GGACCCCA,0.115
19,ACCTCTAC,0.0304
20,TGCAGGAA,0.213
21,AAAAACCG,-0.049
22,ATAGGCTA,-0.0307
23,CCTAATTC,0.177
24,CTAGACAC,-0.00777
25,GTAGATTA,0.0121

row,Sequence,PBM E-score
1,ATAGGAGC,0.242
2,AATTTCGA,-0.0586
3,GAAGAGAA,0.0371
4,TATCTGAA,0.133
5,CTCGACCC,-0.131
6,AAGACGGA,-0.156
7,AACTACGA,-0.0767
8,TCGCCCCA,0.0274
9,GCTCCTTA,0.0759
10,TATTGGCA,0.185
11,CACTAGGA,0.132
12,AAGCACTA,-0.0626
13,CTATTATA,0.117
14,ATGTTAGA,0.0407
15,CCCGAGCC,0.106
16,CTAACACA,0.0589
17,CCACTACC,0.125
18,GGAGCGCC,0.158
19,CCTCCGAC,-0.107
20,CCCAAATC,0.238
21,CCAGTCCA,-0.135
22,CATCTGTC,0.00552
23,AACAGGAA,0.334
24,AGCAGGTC,-0.162
25,AGACTGCA,-0.0235

row,Sequence,PBM E-score
1,GTTTTAGA,0.0308
2,CCTAAAGG,0.0292
3,AGCTGCAG,0.0532
4,ATCACTCG,0.109
5,CCAGGATC,0.171
6,CCGTGCCC,-0.0699
7,AGCTCCTC,-0.14
8,AACGATGC,0.0153
9,ATGTTGAA,0.0777
10,AGTTTCAA,0.00219
11,CTCAATGC,0.0559
12,AAACGAGT,0.139
13,ACGCAAAT,-0.113
14,CGTGAAAC,0.187
15,GTGAGGAA,0.0561
16,ACAATGAT,0.0664
17,CGACTTGC,-0.204
18,TACAGCTA,-0.0983
19,TCCACGAA,0.141
20,GACATTAA,0.1
21,CCCCACGA,-0.0821
22,CATGAGGA,0.0155
23,AGTCGGCC,-0.225
24,GGGTTTAA,-0.0206
25,CGCACGGC,-0.0722

row,Sequence,PBM E-score
1,ATATAAAC,-0.0249
2,GTCGGTAA,-0.103
3,AGACAGCG,-0.278
4,TCGGGCAA,-0.272
5,GTTGCGAA,0.0274
6,TAGATATA,0.00474
7,AGCCAGTA,0.0955
8,AAATAAAA,0.154
9,ACATTCAG,0.0532
10,ATGATTAC,-0.267
11,CTTACCAC,-0.111
12,GAGGAATC,0.345
13,AATACAAC,0.0962
14,AATAACCA,-0.0205
15,ATAACATC,0.0721
16,CAATAGCA,-0.0743
17,ACTACGCC,-0.0959
18,CCCCTTAC,-0.164
19,AATTTACA,0.0926
20,AGTATACG,-0.0269
21,GTAATAGA,0.21
22,ATTCTAAC,0.0097
